According to paper PMC4336329 (PLoS ONE, 2015):
About 2,200 (0.71%) of roughly 310,000 compounds showed an effect of 50% or more. The effect is printed as a negative number. This is one part of the list.

target: human ether-à-go-go-related gene (hERG) potassium channel (human, UniProt Q12809); assay: primary screen, population patch clamp on CHO cells stably expressing hERG
Sequence (Q12809 whole entry, looked up): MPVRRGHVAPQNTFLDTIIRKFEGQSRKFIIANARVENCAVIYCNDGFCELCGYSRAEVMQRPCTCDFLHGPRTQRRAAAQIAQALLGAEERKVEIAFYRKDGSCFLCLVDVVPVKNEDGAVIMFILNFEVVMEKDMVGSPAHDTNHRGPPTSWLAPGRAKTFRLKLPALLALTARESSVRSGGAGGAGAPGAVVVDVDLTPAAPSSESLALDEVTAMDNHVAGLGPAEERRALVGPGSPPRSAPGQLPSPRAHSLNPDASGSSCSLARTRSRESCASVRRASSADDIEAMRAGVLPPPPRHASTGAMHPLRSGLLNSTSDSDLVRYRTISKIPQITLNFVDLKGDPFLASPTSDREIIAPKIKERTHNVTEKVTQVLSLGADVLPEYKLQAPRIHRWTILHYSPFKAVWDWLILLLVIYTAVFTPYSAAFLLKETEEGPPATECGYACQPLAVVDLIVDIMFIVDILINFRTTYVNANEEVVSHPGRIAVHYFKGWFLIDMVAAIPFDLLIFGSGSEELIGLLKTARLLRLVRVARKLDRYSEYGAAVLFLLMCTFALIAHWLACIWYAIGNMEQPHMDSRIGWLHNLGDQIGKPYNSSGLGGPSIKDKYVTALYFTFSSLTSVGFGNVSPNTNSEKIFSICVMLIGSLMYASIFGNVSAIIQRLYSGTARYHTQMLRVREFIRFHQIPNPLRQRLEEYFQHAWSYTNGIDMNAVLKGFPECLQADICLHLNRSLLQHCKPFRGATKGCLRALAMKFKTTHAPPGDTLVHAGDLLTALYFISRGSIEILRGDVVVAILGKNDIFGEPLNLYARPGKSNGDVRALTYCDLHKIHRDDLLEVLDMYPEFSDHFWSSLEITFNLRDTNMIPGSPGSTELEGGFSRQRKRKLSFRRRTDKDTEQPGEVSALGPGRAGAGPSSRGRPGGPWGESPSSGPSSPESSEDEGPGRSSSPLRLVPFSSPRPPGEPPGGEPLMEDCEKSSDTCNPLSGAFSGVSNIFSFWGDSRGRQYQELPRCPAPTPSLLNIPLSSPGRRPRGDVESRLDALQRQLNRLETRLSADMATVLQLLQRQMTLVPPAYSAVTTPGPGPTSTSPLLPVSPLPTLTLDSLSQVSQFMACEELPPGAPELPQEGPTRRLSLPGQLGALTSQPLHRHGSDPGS

Compound	hERG current change (%, negative = inhibition) at 1uM [%]
CCOc1cccc(C(=O)Nc2ccncc2)c1	-0.234
Cc1ccc2cc(/C=N/NC(=O)[C@@H]3CCCN3)c(Cl)nc2c1.Cl	10.8
CCOc1ccc(NC(=O)COC(=O)CCC(=O)c2cccs2)cc1	9.54
CSc1nc(N)n2nc(-c3ccc(Cl)cc3)cc2n1	9.98
CCCCNC(=S)NCc1ccc2[nH]c3c(c2c1)CCCC3	10.4
CCOC(=O)c1sc(CS(=O)(=O)c2ccc(Cl)cc2)nc1C	17.3
CCOc1cc(/C=N/NC(=O)C(C)Sc2ccccc2)ccc1O (stereo not drawn)	1.95
CC[C@@]12C(=O)N(c3cccc(C)c3)C(=O)N1[C@H](c1ccc(OC)cc1)[C@@H]1C(=O)N(C(C)(C)C)C(=O)[C@@H]12	10.3
Cc1ccc(NC2=Nc3ccccc3CS2)cc1	11.2
O=C(Nc1cccnc1)c1ccc2ccccc2c1O	6.53
COC(=O)c1cccnc1-n1c(=O)c2cccnc2n(Cc2cccc(C(F)(F)F)c2)c1=O	10.1
COn1c(=O)c(-c2cccc(Br)c2)[n+]([O-])c2ccccc21	15.7
CCOC(=O)c1[nH]c(C)c(C(=O)Nc2ccc(C)c(C)c2)c1C	12.1
O=C(Nc1ccccc1)Nc1cnccn1	8.51
CS(=O)(=O)N1CCN(C(=O)NC23CC4CC(CC(C4)C2)C3)CC1	5.46
O=C(NCCS(=O)(=O)N1CCN(c2ccc(F)cc2)CC1)C12CC3CC(CC(C3)C1)C2	4
O=C(NCc1ccc(Cl)cc1)N1CCOCC1	16.4
Cn1c(C(=O)N2CCCC(C(=O)c3ccc(C(F)(F)F)cc3)C2)cc(=O)n(C)c1=O (stereo not drawn)	-35.7
CCO.NCCc1c[nH]c2ccc(C(N)=O)cc12.O=C([O-])/C=C\C(=O)[O-]	11.6
CCN(CC)C(=O)CSC1=Nc2ccccc2C2=NC(Cc3c[nH]c4ccccc34)C(=O)N12 (stereo not drawn)	2.12
CCNC(=S)Nc1cccc(Cl)c1C	7.4
Cc1c(C(=O)NC2CCCc3ccccc32)cccc1[N+](=O)[O-] (stereo not drawn)	16.1
COc1ccc(/C=C/C(=O)OCC(=O)Nc2ccc(Cl)cc2F)cc1S(=O)(=O)N1CCOCC1	10.9

Compound	hERG current change (%, negative = inhibition) at 1uM [%]
O=C(/C=C/c1ccccc1)NCCc1cnc[nH]1	7.74
CC1=C([N+](=O)[O-])C(c2ccccc2)C2=C(N1)c1ccccc1C2=O (stereo not drawn)	10.1
O=C(Nc1ccc(F)cc1)c1ccc(-n2cncn2)c([N+](=O)[O-])c1	2.63
O=C(CCC(=O)N1CCSc2ccccc21)NCCc1ccccc1	6.96
CCOc1ccccc1NC(=S)N1CCC(NC(=O)C(C)(C)C)CC1	13.6
O=C(O)c1cc(S(=O)(=O)N2CCCCCC2)ccc1Cl	13.8
Cc1ccc(C2NNC(=O)C2NC(=O)c2ccccc2)cc1 (stereo not drawn)	17.3
COc1cc(C(=O)Nc2ccc(Nc3ccccc3)cc2)cc(OC)c1OC	12.6
COc1ccc(CN(C(=O)CN2C(=O)COc3ccccc32)C2CCCC2)c(OC)c1	1.11
O=C(c1ccc2ccccc2c1)N1CCCC1	14.5
COc1ccccc1C(=O)C1CCCN(C(=O)c2ccc3c(c2)OCCO3)C1 (stereo not drawn)	5.75
Cn1nnnc1SCC(=O)Nc1ccccc1Cc1ccccc1	5.75
Cc1sc2ncn(CC(=O)NCCCC(=O)N3CCC(C(N)=O)CC3)c(=O)c2c1C	19.4
Cc1ccccc1NC(=O)c1ccc(Cl)c(NC(=O)c2cccnc2)c1	12.9
Cc1ccccc1OCC(=O)Nc1ccc(S(=O)(=O)Nc2ccccn2)cc1	3.67
COc1ccccc1CNS(=O)(=O)c1c(C)[nH]c(=O)[nH]c1=O	12.4
Cc1ccccc1C(=O)NNC(=S)NC(=O)c1ccccc1	15.5
CSCCC(NS(=O)(=O)c1ccc(C)cc1)C(=O)N1CCN(C(c2ccccc2)c2ccccc2)CC1 (stereo not drawn)	14
COc1ccc(N2CCc3c(C)nc(SC)nc32)cc1	10.3
COc1ccc(COC(=O)c2c(C)nn(-c3ccccc3)c2Cl)cc1	1.94
CNC(=O)CCSSCCC(=O)NC	17
O=C1C(Cl)=C(NCc2cccnc2)C(=O)c2ccccc21	16.8
